Assay results: the supplement of paper PMC10126150
Sequences with one replicate were seen in a single cluster, so their values are uncertain.

The sequences below were run on ATP (assay: switch fluorescence ratio, 500 uM ATP over buffer (Cy3 cluster intensity, sum of 5 cycles each) (fold (ratio)); higher = stronger signal-on switching upon ATP binding; sequences stand for … in TCGTCGGCAGCGTCAGATGTGTATAAGAGACAGTTTTTTTTTTTTTTTTTTTTTTTTT…TC). Conditions: aptamer strand: ATP DNA aptamer (quencher-CACCTGGGGGAGTATTGCGGAGGAAGG + anchor), 100 nM annealed; ATP concentration: 500 uM; one replicate.
Method in brief: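 After annealing to 100 nM quencher-labelled ATP aptamer, Cy3-labelled switching-strand clusters on a modified Illumina MiSeq flow-cell were imaged in selection buffer. A second image followed after 15 min with 500 uM ATP at 22 °C, and five such buffer/ATP cycles were done, each separated by NaOH stripping and re-annealing. The fluorescence ratio, averaged per switch-domain sequence, is summed target-cycle over summed buffer-cycle Cy3 intensity per cluster, with clusters outside 100-1000 RFU excluded.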
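Also: ATP exposure 15 min at 22 °C before imaging.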

Row | Sequence | switch fluorescence ratio
1 | GAGTCGAAAA | 1.04
2 | GAGTCGGTAG | 0.939
3 | GAGTGAATC | 1.01
4 | GAGTGATACG | 1.11
5 | GAGTGCCACC | 1.01
6 | GAGTGCGATG | 1.01
7 | GAGTGGCGT | 0.967
8 | GAGTGGCTTG | 0.98
9 | GAGTGGGTCT | 0.973
10 | GAGTGTAATC | 0.943
11 | GAGTGTGGTT | 1
12 | GAGTTAATAA | 1.03
13 | GAGTTACGGA | 1.06
14 | GAGTTATGGC | 0.975
15 | GAGTTCACAA | 1.01
16 | GAGTTCCTGG | 0.985
17 | GAGTTTAGAC | 0.973
18 | GAGTTTCGGG | 0.979
19 | GAGTTTGAGC | 0.966
20 | GATAAAAGGG | 1.06
21 | GATAAAGACC | 1.01
22 | GATAACTTT | 1.04
23 | GATAAGGATT | 1
24 | GATAAGGCTT | 0.994
25 | GATAAGTCCG | 0.985

Row | Sequence | switch fluorescence ratio
26 | GATAATGGA | 0.947
27 | GATACAGTAT | 1.1
28 | GATACCCTAG | 1.07
29 | GATACGCTGT | 1.06
30 | GATACTCGGA | 0.981
31 | GATACTCGTT | 0.954
32 | GATAGAATGG | 0.948
33 | GATAGAATTT | 0.965
34 | GATAGATAGT | 1
35 | GATAGCCTGG | 0.978
36 | GATAGCGAGA | 1.03
37 | GATAGGAGGT | 0.994
38 | GATAGGCTCT | 0.993
39 | GATAGGGTCA | 1.04
40 | GATAGGTAGC | 1.02
41 | GATAGGTATT | 1.08
42 | GATAGGTCAA | 0.983
43 | GATAGTAGGT | 1.38
44 | GATAGTATTC | 0.987
45 | GATAGTATTG | 0.964
46 | GATATATACA | 1.04
47 | GATATATGGG | 0.998
48 | GATATCGTGT | 0.995
49 | GATATCTTAG | 0.994
50 | GATATGCAGG | 1.04

Row | Sequence | switch fluorescence ratio
51 | GATATTTGG | 1.01
52 | GATATTTGGG | 0.986
53 | GATCAAAAGT | 0.967
54 | GATCACGTGG | 0.942
55 | GATCAGGCG | 1
56 | GATCCATTGC | 1.06
57 | GATCCCCGAG | 1.04
58 | GATCCCGTAT | 1.04
59 | GATCCGAGG | 1.01
60 | GATCCTAACT | 1.03
61 | GATCGAAAGC | 1.04
62 | GATCGAGAAG | 1.01
63 | GATCGAGATC | 1.04
64 | GATCGATATT | 0.96
65 | GATCGCACA | 1.62
66 | GATCGCAGTC | 2.85
67 | GATCGCGCT | 1.01
68 | GATCGCGGTC | 0.986
69 | GATCGCGTAA | 1
70 | GATCGGCCCC | 1
71 | GATCGGCCGT | 1.02
72 | GATCGGGTGA | 1.02
73 | GATCGTGGTC | 0.989
74 | GATCTAAATG | 1.02
75 | GATCTCGCGC | 0.987

Row | Sequence | switch fluorescence ratio
76 | GATCTGTTAT | 0.989
77 | GATCTTCACT | 0.985
78 | GATCTTTACG | 0.957
79 | GATCTTTGAG | 0.942
80 | GATCTTTGCG | 1.04
81 | GATCTTTGGG | 1
82 | GATGAACAGG | 1.04
83 | GATGAACGAG | 0.999
84 | GATGAAGCCA | 0.908
85 | GATGAAGGAT | 0.981
86 | GATGAATAAT | 0.994
87 | GATGACAGTA | 1.02
88 | GATGACATGT | 0.972
89 | GATGACGTTC | 0.973
90 | GATGACTGCA | 1.04
91 | GATGAGAGTA | 1.03
92 | GATGAGCCCG | 0.995
93 | GATGAGGTTT | 0.999
94 | GATGAGTCCA | 1.01
95 | GATGCAGTTA | 1.02
96 | GATGCCACGT | 0.986
97 | GATGCCAGCG | 0.949
98 | GATGCCCTGT | 1.02
99 | GATGCGCAGC | 0.992
100 | GATGCTCAGA | 1.02

Row | Sequence | switch fluorescence ratio
101 | GATGCTGCGG | 1.03
102 | GATGGAGGAA | 0.974
103 | GATGGATTAA | 1.03
104 | GATGGCAGGA | 1.04
105 | GATGGGACTC | 1
106 | GATGGGAGAA | 1.01
107 | GATGGTCCTG | 0.987
108 | GATGGTTGTA | 1.02
109 | GATGTAAGTT | 0.981
110 | GATGTAGGCT | 0.88
111 | GATGTCAATC | 1.01
112 | GATGTGAT | 1.16
113 | GATGTGATGC | 1.64
114 | GATGTGGAGT | 1
115 | GATGTGTTTG | 1.03
116 | GATGTTAGTC | 1.01
117 | GATGTTTAAA | 0.945
118 | GATGTTTTAG | 0.969
119 | GATTAACTAA | 1
120 | GATTAAGTGA | 1.02
121 | GATTAATCCG | 1.03
122 | GATTACTATT | 1.01
123 | GATTAGACTA | 1.04
124 | GATTAGTCAT | 1.02
125 | GATTATATGA | 0.982

Row | Sequence | switch fluorescence ratio
126 | GATTATCAGC | 0.949
127 | GATTATTCAA | 0.964
128 | GATTCATGAG | 0.981
129 | GATTCGAGTG | 0.963
130 | GATTCGCAAA | 1.11
131 | GATTCGTATA | 0.991
132 | GATTCTGTTT | 0.981
133 | GATTCTTCTT | 0.995
134 | GATTGACCTG | 1.06
135 | GATTGATCGT | 1.04
136 | GATTGCCACC | 1.06
137 | GATTGCGACT | 1.04
138 | GATTGGATCT | 1.01
139 | GATTGGGT | 1.02
140 | GATTGGTAGT | 0.96
141 | GATTGTAGC | 0.955
142 | GATTGTAGGA | 0.997
143 | GATTGTCATA | 1.01
144 | GATTGTCTAA | 0.991
145 | GATTGTTCG | 0.997
146 | GATTTAACAC | 1.03
147 | GATTTATTAT | 1
148 | GATTTATTT | 1.03
149 | GATTTCTCTC | 0.995
150 | GATTTTAAAA | 1.08

Row | Sequence | switch fluorescence ratio
151 | GATTTTAGGG | 0.96
152 | GATTTTATAC | 1.05
153 | GATTTTTCGG | 1.01
154 | GCAAAAACT | 3.37
155 | GCAAAAGAGG | 0.995
156 | GCAAAATTCC | 1.1
157 | GCAAACGGTA | 1.06
158 | GCAAAGCCTT | 1.07
159 | GCAACATCAT | 1.03
160 | GCAACTAGGC | 1.19
161 | GCAACTAGGG | 1.02
162 | GCAACTGCCC | 1.22
163 | GCAAGAGAAA | 0.975
164 | GCAAGAGGGA | 1
165 | GCAAGCGAAC | 1.75
166 | GCAAGGAACG | 1.02
167 | GCAAGGCTGA | 1.03
168 | GCAAGTAAGG | 1.29
169 | GCAAGTGAAT | 1.03
170 | GCAAGTTAAG | 1.02
171 | GCAATAGGGG | 1.6
172 | GCAATGGATT | 1.03
173 | GCAATTCCGC | 1.42
174 | GCAATTCGGT | 1.23
175 | GCAATTTGA | 1.03

Row | Sequence | switch fluorescence ratio
176 | GCAATTTGTA | 0.986
177 | GCACAAATAT | 1
178 | GCACAATTGA | 1.01
179 | GCACAGCGCG | 0.979
180 | GCACATAAAT | 1.06
181 | GCACCCTTT | 1.03
182 | GCACCGATGC | 1.16
183 | GCACCTAGGA | 1.08
184 | GCACGAGAGC | 1.03
185 | GCACGAGAGT | 1.05
186 | GCACGAGGGC | 0.967
187 | GCACGATGCC | 1.03
188 | GCACGCGCTA | 1.02
189 | GCACGGGGCC | 1.01
190 | GCACGTAGAC | 1.12
191 | GCACGTTTGG | 1.09
192 | GCACTAAGAG | 0.994
193 | GCACTCTGAA | 1.02
194 | GCACTGATGT | 1.02
195 | GCACTTACAT | 1.3
196 | GCACTTCCAT | 1.04
197 | GCACTTTCTA | 1.02
198 | GCAGAAATCA | 1.01
199 | GCAGAACATC | 1.03
200 | GCAGACTAGG | 0.925
